About 5,800 (2.1%) of roughly 270,000 compounds were called active. Inconclusive results, whose numbers are uncertain, are shown with a selection of clear calls. Calls come from the whole dose curve; as a rule, active = well fitted inhibition curve with a large enough effect; inconclusive = small, poorly fitted or top-dose-only effect; inactive = flat fitted curve, though single readings scatter. A potency beside an inconclusive call is a rough fit, not a confirmed value.
Biological target: Microtubule-associated protein tau (Homo sapiens) (UniProt P10636)
Test: qHTS for Inhibitors of Tau Fibril Formation, Thioflavin T Binding; note: nearly all actives have a fitted effect of over 55% in size
Settings: recombinant tau K18 P301L (four-repeat tau fragment), heparin-induced fibrillization, ThT fluorescence; series mostly up to 57.4 µM; activity, negative = inhibition: at the top concentration
In short: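 In this qHTS, human K18 P301L tau is incubated with compound and heparin for 6 hr at 37 C, and Thioflavin T fluorescence then reports fibril load.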
% is set by controls: 0 for no effect and ±100 for the full control effect; potency is the fitted concentration of half-maximal effect; tags give direction and shape of the fitted curve.

UniProt P10636, sequence (P10636 whole entry, looked up): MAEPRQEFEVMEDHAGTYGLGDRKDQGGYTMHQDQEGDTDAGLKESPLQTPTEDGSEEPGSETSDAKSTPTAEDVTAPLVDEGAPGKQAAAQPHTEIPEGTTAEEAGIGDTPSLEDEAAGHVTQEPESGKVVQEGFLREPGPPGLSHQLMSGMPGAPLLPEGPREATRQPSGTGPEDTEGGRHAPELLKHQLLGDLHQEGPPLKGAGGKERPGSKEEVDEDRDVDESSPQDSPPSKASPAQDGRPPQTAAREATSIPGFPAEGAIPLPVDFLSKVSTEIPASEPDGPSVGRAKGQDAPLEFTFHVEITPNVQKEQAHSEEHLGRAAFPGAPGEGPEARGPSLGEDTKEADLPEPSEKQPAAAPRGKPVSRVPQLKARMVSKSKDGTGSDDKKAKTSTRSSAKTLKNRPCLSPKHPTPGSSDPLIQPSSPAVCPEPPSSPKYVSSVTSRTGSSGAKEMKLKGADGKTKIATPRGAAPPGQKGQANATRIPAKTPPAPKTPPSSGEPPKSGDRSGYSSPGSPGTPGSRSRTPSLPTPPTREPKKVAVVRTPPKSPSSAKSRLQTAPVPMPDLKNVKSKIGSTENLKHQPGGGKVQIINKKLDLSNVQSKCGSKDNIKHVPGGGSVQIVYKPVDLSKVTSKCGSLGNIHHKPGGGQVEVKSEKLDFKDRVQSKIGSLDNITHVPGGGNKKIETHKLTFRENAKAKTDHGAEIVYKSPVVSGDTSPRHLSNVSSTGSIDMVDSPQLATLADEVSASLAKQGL

SMILES | Potency | activity, negative = inhibition
COc1ccc(N/C=C2/Sc3ccccc3NC2=O)cc1 | inconclusive: 2.82 µM [inhibitor, full curve] | –
Cc1nc2ccc(NC(=O)COc3ccccc3)cc2s1 | inconclusive: 39.8 µM [inhibitor, single point] | –
Cc1cc(O)c(C(c2ccccc2Cl)N2CCN(c3ccccc3)CC2)c(=O)n1Cc1ccco1 (stereo unspecified) | inconclusive: 17.8 µM [inhibitor, partial curve] | –
O=C1/C(=C/c2ccc(O)c(O)c2)SC(=S)N1Nc1ccccc1 | active: 5.01 µM | –
FC(F)(F)c1cc(CCN2C(=S)NC[C@@H]2Cc2ccccc2)cc(C(F)(F)F)c1 | inconclusive: 28.2 µM [inhibitor, single point] | –
CCOC(=O)CN1C(=O)S/C(=C/C=C/c2ccc(N(C)C)cc2)C1=O | active: 2.24 µM | –
COc1ccc2o/c(=N/NC(=S)Nc3ccccc3)c(C(N)=O)cc2c1 | inconclusive: 1.41 µM [inhibitor, full curve, poor fit] | –
COc1cc(NC(=O)c2ccc3c(c2)OCCO3)ccc1NC(=O)c1cccs1 | inconclusive: 2 µM [inhibitor, full curve] | –
CCCSc1nc(C)c(-c2csc(C(C#N)=C3CCCC3)n2)cc1C#N | inconclusive: 39.8 µM [inhibitor, single point] | –
CCNc1nc(NCC)nc(N/N=C/c2ccc(N(C)C)cc2)n1 | inconclusive: 11.2 µM [inhibitor, partial curve] | –
COC(=O)/C(=C/c1cn(C)c2ccccc12)[N+](=O)[O-] | – | inactive: -19.7%
NN1C(=O)/C(=C\c2ccco2)SC1=S | active: 31.6 µM | –
CCc1c(C)sc2c1CCN(Cc1ccc(F)cc1)C2c1ccccc1 (stereo unspecified) | inconclusive: 31.6 µM [inhibitor, single point] | –
Clc1cccc(-c2ccc(C=Nc3ccc(N4CCOCC4)cc3)o2)c1 | inconclusive: 12.6 µM [inhibitor, partial curve] | –
O=C(Nc1nc(-c2ccccc2)c(-c2ccccc2)s1)c1ccc(S(=O)(=O)N2CCCCC2)cc1 | inconclusive: 39.8 µM [inhibitor, single point] | –
S=c1nc(SCc2ccccc2)[nH]c2ccccc12 | inconclusive: 17.8 µM [inhibitor, partial curve, poor fit] | –
CC(C)(C)NC(=O)C(c1ccncc1)N(Cc1ccco1)C(=O)c1ccc(-c2ccccc2)[nH]1 (stereo unspecified) | inconclusive: 14.1 µM [inhibitor, partial curve] | –
CC(=O)c1ccc(NC(=O)c2ncn(-c3ccccc3)n2)cc1 | inconclusive: 0.141 µM [inhibitor, full curve] | –
COc1ccc(C(C(=O)NCC2CCCO2)N(C(=O)CNC(=O)c2cccs2)c2ccc(C)cc2)cc1OC (stereo unspecified) | – | inactive: 0.611%
Cc1ccc(CSc2cn(CC(=O)N3CCCCC3)c3ccccc23)cc1 | inconclusive: 17.8 µM [inhibitor, single point] | –
Cc1ccc2nc(N(Cc3cccnc3)C(=O)C3COc4ccccc4O3)sc2c1 (stereo unspecified) | – | inactive: -10.9%
Cc1ccc(NC(=O)c2cccn2-c2nnc(N3CCCCC3)s2)cc1Cl | – | inactive: -6.44%

SMILES | Potency | activity, negative = inhibition
O=C1c2oc3ccc(F)cc3c(=O)c2C(c2cccc([N+](=O)[O-])c2)N1CCCN1CCOCC1 (stereo unspecified) | inconclusive: 2 µM [inhibitor, full curve] | –
CCN(CC)C(=O)Oc1ccc2c(=O)c(-c3ccc(OC)cc3)c(C)oc2c1 | inconclusive: 25.1 µM [inhibitor, partial curve] | –
Cc1ccc2nc3c(cc(C(N)=S)c(=N)n3CCCOC(C)C)c(=O)n2c1 | inconclusive: 14.1 µM [inhibitor, partial curve] | –
COc1ccccc1C(=O)Oc1cc(N)n(S(=O)(=O)c2ccccc2)n1 | inconclusive: 17.8 µM [inhibitor, partial curve] | –
CC(=O)/C(=N/Nc1ccccc1[N+](=O)[O-])N1CCCc2ccccc21 | inconclusive: 14.1 µM [inhibitor, partial curve] | –
Cc1cc(C)c(NC(=O)CSc2nccn2Cc2ccco2)c(C)c1 | – | inactive: -11.3%
CCCCOc1ccc(CNn2c(C)nc3ccccc3c2=O)cc1 | inconclusive: 14.1 µM [inhibitor, partial curve] | –
O=c1oc2c3c(ccc2c2ccccc12)OCN(Cc1cccc(Cl)c1)C3 | inconclusive: 11.2 µM [inhibitor, partial curve] | –
CC(=O)Nc1cccc(C(=O)NCc2ccc3c(c2)CCN3C(C)=O)c1 | – | inactive: 11.5%
N#C/C(=N\Nc1ccccc1[N+](=O)[O-])C(=N)N1CCCCC1 | inconclusive: 15.8 µM [inhibitor, partial curve] | –
COc1ccc(-c2noc(-c3ccc(NCc4ccccc4OC)c([N+](=O)[O-])c3)n2)cc1 | inconclusive: 10 µM [activator, single point] | –
O=C(Nc1ccccc1)Nc1sccc1-c1nc2ccccc2s1 | inconclusive: 12.6 µM [inhibitor, single point] | –
O=C(NNC(=S)NC1CCCCC1)c1sc2ccccc2c1Cl | inconclusive: 5.01 µM [inhibitor, partial curve, poor fit] | –
O=C(NCCCN1CCCCCC1)c1ccc(N2CCCC2=O)cc1 | inconclusive: 39.8 µM [inhibitor, single point] | –
O=C(NC(=S)NCCc1ccc(Cl)cc1)c1ccco1 | inconclusive: 22.4 µM [inhibitor, single point] | –
O=C(Cn1cc(SCc2cccc(Cl)c2)c2ccccc21)N1CCOCC1 | inconclusive: 22.4 µM [inhibitor, partial curve] | –
C=CC[C@@H]1C=C[C@H](O/N=C(\C)CCN2CCCCc3nc(C)c(C)cc32)[C@H](CO)O1 | – | inactive: 4.22% [at 11.5 µM]
COc1ccc(-c2nc3cc(NC(=O)c4ccc5c(c4)OCO5)ccc3o2)cc1 | inconclusive: 0.562 µM [inhibitor, full curve] | –
CC1CN(C(=O)N2CCC(C(=O)NC3CCCCCC3)CC2)c2cc(Cl)ccc2O1 (stereo unspecified) | active: 20 µM | –
N#CC(c1nc2ccccc2nc1N1CCCC1)S(=O)(=O)c1ccccc1 (stereo unspecified) | inconclusive: 14.1 µM [inhibitor, partial curve] | –
COc1ccc(-c2ccnc3c(-c4ccc(F)cc4)c(C)nn23)cc1OC | inconclusive: 0.562 µM [inhibitor, full curve, poor fit] | –
COc1cccc(C2Oc3ccccc3C3CC(c4cccs4)=NN32)c1 (stereo unspecified) | inconclusive: 39.8 µM [inhibitor, single point] | –

SMILES | Potency | activity, negative = inhibition
COc1ccc(-n2c(C)cc(/C=N/Nc3nc(N4CCOCC4)nc(N4CCOCC4)n3)c2C)cc1 | inconclusive: 28.2 µM [inhibitor, single point] | –
COc1ccc(-c2csc(COC(=O)C(C)(C)C)n2)cc1 | inconclusive: 17.8 µM [inhibitor, partial curve] | –
O=C(CSCc1ccc(Cl)cc1)N/N=C/c1ccc(OCC(=O)Nc2ccccc2)cc1 | inconclusive: 0.447 µM [inhibitor, partial curve, poor fit] | –
COc1ccc(N/C=C/C(=O)c2ccc(OC)c(OC)c2)cc1 | inconclusive: 3.55 µM [inhibitor, partial curve] | –
N=C1S/C(=C\c2cccc3ccccc23)C(=O)N1c1ccc(F)cc1 | inconclusive: 2.82 µM [inhibitor, full curve, poor fit] | –
CCC(=O)NC1=C(Cl)C(=O)C(NC(=O)CC)=C(Cl)C1=O | active: 2 µM | –
CCOc1ccc(CNC(=O)c2cc3c(=O)n(C)c4ccccc4c3s2)cc1 | – | inactive: 2.96%
Cc1ccc(C(C)C)c(OCCn2cc(C(=O)c3ccco3)c3ccccc32)c1 | – | inactive: -5.19%
COc1ccccc1N1CCN(C(=O)c2oc3ccccc3c2NC(=O)C(C)Oc2ccccc2)CC1 (stereo unspecified) | – | inactive: -10.4%
Cc1ccc2nc(NC(=O)c3ccccn3)sc2c1 | inconclusive: 1.58 µM [inhibitor, full curve, poor fit] | –
Cc1cc(C(=O)N/N=C/c2cc(N=Nc3ccccc3)ccc2O)n[nH]1 | active: 7.08 µM | –
COc1ccc(CCNc2oc(-c3ccc(OC)c(OC)c3)nc2C#N)cc1 | inconclusive: 12.6 µM [inhibitor, partial curve] | –
Cc1ccccc1NC(=O)C1c2cccc[n+]2CC(=O)N1c1c(C)cccc1C (stereo unspecified) | inconclusive: 31.6 µM [inhibitor, single point] | –
C/C(=N\NS(=O)(=O)c1ccc(C)c([N+](=O)[O-])c1)c1cccs1 | – | inactive: -9.94%
S=C(NN=C1CCCCCC1)Nc1ccc(Cl)cc1 | inconclusive: 17.8 µM [inhibitor, partial curve] | –
COc1ccc2c(c1)NC(c1ccc(OCC(C)C)cc1)=NC(c1ccncc1)=N2 | inconclusive: 17.8 µM [inhibitor, partial curve] | –
Cc1nc2ccc(S(=O)(=O)NCC(=O)N3CCc4ccccc43)cc2s1 | – | inactive: -21.7%
CCCNC(=O)OC[C@@H]1O[C@H](CCO/N=C(\C)CCC(=O)OC[C@@H]2O[C@H](c3ccccc3)C=C[C@@H]2Oc2ccc(OC)cc2)C=C[C@@H]1Oc1ccc(OC)cc1 | – | inactive: -6.88% [at 11.5 µM]
S=C(Nc1ccc2c(c1)OCO2)N1CCN(Cc2ccco2)CC1 | inconclusive: 7.94 µM [inhibitor, partial curve] | –
CCOc1ccc2nc(N3CCCC(C(=O)Nc4ccc(Br)c(C)c4)C3)sc2c1 (stereo unspecified) | inconclusive: 1 µM [inhibitor, full curve, poor fit] | –
COc1cccc(C(=O)N2c3ccccc3Sc3ccccc32)c1 | – | inactive: 6.73%
O=C(CCCOc1ccc(Cl)cc1Cl)N/N=C/c1ccc(Cl)cc1 | – | inactive: 5.23%
